{"source": "PubChem BioAssay (EPA / NIEHS)", "key": {"[1]": {"target": "Aryl hydrocarbon receptor (Homo sapiens) (UniProt P35869)", "sequence (P35869 whole entry, looked up)": "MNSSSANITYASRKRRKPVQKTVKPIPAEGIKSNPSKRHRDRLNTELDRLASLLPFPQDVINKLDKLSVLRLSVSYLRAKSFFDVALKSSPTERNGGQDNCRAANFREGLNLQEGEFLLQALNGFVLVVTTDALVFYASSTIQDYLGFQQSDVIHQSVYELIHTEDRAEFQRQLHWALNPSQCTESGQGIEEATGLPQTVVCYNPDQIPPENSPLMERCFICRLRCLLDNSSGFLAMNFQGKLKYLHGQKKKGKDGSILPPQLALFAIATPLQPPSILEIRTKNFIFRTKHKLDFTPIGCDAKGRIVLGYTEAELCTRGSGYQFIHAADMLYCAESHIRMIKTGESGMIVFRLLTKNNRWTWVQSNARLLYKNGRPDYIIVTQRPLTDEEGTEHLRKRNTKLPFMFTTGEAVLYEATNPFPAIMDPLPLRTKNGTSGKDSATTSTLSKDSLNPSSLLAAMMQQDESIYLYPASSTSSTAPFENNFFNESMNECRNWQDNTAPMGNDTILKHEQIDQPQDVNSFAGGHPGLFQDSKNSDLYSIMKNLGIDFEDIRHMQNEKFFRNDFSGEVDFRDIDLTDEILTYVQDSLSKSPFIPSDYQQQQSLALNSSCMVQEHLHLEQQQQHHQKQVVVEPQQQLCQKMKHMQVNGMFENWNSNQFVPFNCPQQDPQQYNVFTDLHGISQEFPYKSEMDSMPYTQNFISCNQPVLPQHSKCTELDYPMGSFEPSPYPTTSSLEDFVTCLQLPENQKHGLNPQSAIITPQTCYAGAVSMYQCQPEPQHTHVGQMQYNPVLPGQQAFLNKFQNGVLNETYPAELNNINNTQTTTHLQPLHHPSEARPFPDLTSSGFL", "assay": "ATG_Ahr_CIS: Attagene CIS-FACTORIAL HepG2 Assay for human Aryl Hydrocarbon Receptor (Ahr) (AID 2282930)", "conditions": "HepG2 AhR cis-factorial reporter transcription; actives raise or lower the signal", "protocol": "ATG_CIS is a cell-based, multiplexed-readout assay that uses HepG2, a human liver cell line, with measurements taken at 24 hours after chemical dosing in a 24-well plate.ATG_Ahr_CIS is one of 52 assay component(s) measured or calculated from the ATG_CIS assay. It is designed to make measurements of mRNA induction, a form of inducible reporter, as detected with fluorescence intensity signals by Reverse transcription polymerase chain reaction (RT-PCR) and Capillary electrophoresis technology.Data from the assay component ATG_Ahr_CIS was analyzed into 1 assay endpoint. This assay endpoint, ATG_Ahr_CIS, was analyzed with bidirectional fitting relative to DMSO as the negative control and baseline of activity. […] Furthermore, this assay endpoint can be referred to as a primary readout, because this assay has produced multiple assay endpoints where this one serves a reporter gene function. […]\nHuman liver HepG2 cells are transiently transfected with multiple reporter transcription units (MRTUs) in 6-well plates using FuGene 6 reagent (Roche; 3 ml FuGene/1 mg DNA). […] A major difference between the CIS and TRANS system is that in CIS activities of endogenous TFs are measured, whereas the TRANS assay evaluates changes in activities of exogenous, chimeric NR-Gal4 proteins. […]"}, "[2]": {"assay": "ATG_EGR_CIS: Attagene CIS-FACTORIAL HepG2 Assay for human Early Growth Response 1 (EGR1) (AID 2282938)", "conditions": "HepG2 Attagene CIS-FACTORIAL EGR reporter mRNA; actives raise or lower the signal", "method_in_brief": "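HepG2 cells transiently transfected with cis-element-driven multiplexed reporter units, dosed for 24 h. EGR1-element reporter mRNA quantified by RT-PCR, 6-FAM labelling, HpaI digestion and capillary electrophoresis; bidirectional fit versus DMSO.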"}, "[3]": {"assay": "ATG_MRE_CIS: Attagene CIS-FACTORIAL HepG2 Assay for human Metal Responsive Element (MRE) (AID 2282954)", "conditions": "HepG2 MRE cis-reporter transcription, Attagene multiplex; actives raise or lower the signal", "method_in_brief": "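Measured here is mRNA induction from an MRE cis-element reporter in HepG2 after 24 h, quantified by fluorescence of labelled RT-PCR products on capillary electrophoresis; gain- and loss-of-signal fits use DMSO as baseline.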"}, "[4]": {"assay": "ATG_PPRE_CIS: Attagene CIS-FACTORIAL HepG2 Assay for human Peroxisome Proliferator-activated Response Element (PPRE) (AID 2282958)", "conditions": "HepG2 PPRE cis-element reporter, Attagene transcription factor profiling; actives raise or lower the signal", "method_in_brief": "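HepG2 cells are transiently transfected with multiplexed cis-promoter reporter units to report endogenous PPAR activity. After 24 h dosing, reporter mRNA is read by RT-PCR and capillary electrophoresis. Fitting is bidirectional against DMSO.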"}}, "note": "A number of entries come with more than one value. The other results are left out here. The calls were made as follows: active = hit-call score of the fitted dose curve at least 0.9, where 1 is the maximum; inactive = score below 0.9. The source may hold further records. Results that share an entry repeat one measurement (runs, samples, wells, individuals or studies). More than one record can exist for a structure, and the calls need not agree."}
{"smiles": "OCc1c[nH]c2ccccc12", "values": [{"measurement": "AC50", "setting": "[1]", "result": "active: 486, 385, 281, 196, 52.8 nM [separate samples]"}, {"measurement": "AC50", "setting": "[2]", "result": "active: 8.35, 8.05, 32.8, 7.33 µM [separate samples]"}, {"measurement": "AC50", "setting": "[3]", "result": "active: 8.28, 9.3, 36.6, 26.8, 8.36 µM [separate samples]"}, {"measurement": "AC50", "setting": "[4]", "result": "active: 20.4, 19.8, 22.7, 100, 45 µM [separate samples]"}]}
